{"source": "the supplement of paper PMC8728848", "binders": {"B1": {"name": "Mermaid3 (Stilbonema majum) (protein)", "chain": "MGSSHHHHHHSSGLVPRGSHMAASGWLRSPQGTVVKLYRRSLSWSKADEFCKDVDGRLVVDRTADMHLFLIKNVLKEKKSRVWVGLRRTASHSRTWIWSDGTRQNEGDLDANLWLRDEPNDAAGEEECALFMYSPWEKAWGLNDYLCRGGCRNYQFICEKWIR"}}, "assay_in_all_cases": "glycan array binding signal (z-score within array); higher = stronger binding", "details_in_all_cases": "glycan notation: IUPAC condensed, linker removed", "key": {"[1]": {"target": "GlcNAc(b1-3)Gal(b1-4)GlcNAc(b1-3)Gal(b1-4)GlcNAc(b1-3)GalNAc", "outline": "(§1)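 Glycan array data were curated from 3228 arrays in the Consortium for Functional Glycomics database and kept only where the protein sequence was available. Glycan names were converted to IUPAC-condensed notation, and columns mapping to the same glycan were averaged. The binding signal is a within-array Z-score, averaged across arrays of the same protein sequence at different concentrations or buffers and across linkers. Negative Z-scores can be read as non-binding.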"}, "[2]": {"target": "GlcNAc(b1-3)Gal(b1-4)GlcNAc(b1-3)GalNAc", "outline": "as §1"}, "[3]": {"target": "GlcNAc(b1-3)Gal(b1-4)GlcNAc(b1-3)[GlcNAc(b1-3)Gal(b1-4)GlcNAc(b1-3)]GalNAc", "outline": "as §1"}, "[4]": {"target": "GlcNAc(b1-3)Gal(b1-4)GlcNAc(b1-6)[Gal(b1-3)]GalNAc", "outline": "as §1"}, "[5]": {"target": "GlcNAc(b1-3)Gal(b1-4)GlcNAc(b1-6)[GlcNAc(b1-3)Gal(b1-3)]GalNAc", "outline": "as §1"}, "[6]": {"target": "GlcNAc(b1-3)Gal(b1-4)GlcNAc(b1-6)[GlcNAc(b1-3)]Gal(b1-4)GlcNAc", "outline": "as §1"}, "GlcNAc(b1-3)GalNAc": {"target": "GlcNAc(b1-3)GalNAc", "outline": "as §1"}, "GlcNAc(b1-3)Man": {"target": "GlcNAc(b1-3)Man", "outline": "as §1"}, "[7]": {"target": "GlcNAc(b1-3)[GlcNAc(b1-4)][GlcNAc(b1-6)]GlcNAc", "outline": "as §1"}, "[8]": {"target": "GlcNAc(b1-3)[GlcNAc(b1-6)]Gal(b1-4)GlcNAc", "outline": "as §1"}, "[9]": {"target": "GlcNAc(b1-3)[GlcNAc(b1-6)]GalNAc", "outline": "as §1"}, "[10]": {"target": "GlcNAc(b1-4)Gal(b1-4)GlcNAc", "outline": "as §1"}, "GlcNAc(b1-4)GlcNAc": {"target": "GlcNAc(b1-4)GlcNAc", "outline": "as §1"}, "[11]": {"target": "GlcNAc(b1-4)GlcNAc(b1-4)GlcNAc", "outline": "as §1"}, "[12]": {"target": "GlcNAc(b1-4)GlcNAc(b1-4)GlcNAc(b1-4)GlcNAc(b1-4)GlcNAc", "outline": "as §1"}, "[13]": {"target": "GlcNAc(b1-4)GlcNAc(b1-4)GlcNAc(b1-4)GlcNAc(b1-4)GlcNAc(b1-4)GlcNAc", "outline": "as §1"}, "[14]": {"target": "GlcNAc(b1-4)[GlcNAc(b1-6)]GalNAc", "outline": "as §1"}, "[15]": {"target": "GlcNAc(b1-6)Gal(b1-4)GlcNAc", "outline": "as §1"}, "GlcNAc(b1-6)GalNAc": {"target": "GlcNAc(b1-6)GalNAc", "outline": "as §1"}, "[16]": {"target": "GlcNAc6S(b1-3)Gal(b1-4)GlcNAc", "outline": "as §1"}, "Kdn(a2-3)Gal(b1-3)GalNAc": {"target": "Kdn(a2-3)Gal(b1-3)GalNAc", "outline": "as §1"}, "Kdn(a2-3)Gal(b1-3)GlcNAc": {"target": "Kdn(a2-3)Gal(b1-3)GlcNAc", "outline": "as §1"}, "Kdn(a2-3)Gal(b1-4)Glc": {"target": "Kdn(a2-3)Gal(b1-4)Glc", "outline": "as §1"}, "Kdn(a2-3)Gal(b1-4)GlcNAc": {"target": "Kdn(a2-3)Gal(b1-4)GlcNAc", "outline": "as §1"}, "[17]": {"target": "Kdn(a2-3)Gal(b1-4)[Fuc(a1-3)]GlcNAc", "outline": "as §1"}, "Kdn(a2-6)Gal(b1-4)GlcNAc": {"target": "Kdn(a2-6)Gal(b1-4)GlcNAc", "outline": "as §1"}, "[18]": {"target": "Man(a1-2)Man(a1-2)Man(a1-3)Man", "outline": "as §1"}, "[19]": {"target": "Man(a1-2)Man(a1-2)Man(a1-6)[Man(a1-3)]Man", "outline": "as §1"}, "Man(a1-2)Man(a1-3)Man": {"target": "Man(a1-2)Man(a1-3)Man", "outline": "as §1"}, "[20]": {"target": "Man(a1-2)Man(a1-3)[Man(a1-2)Man(a1-6)]Man", "outline": "as §1"}, "[21]": {"target": "Man(a1-2)Man(a1-3)[Man(a1-2)Man(a1-6)]Man(a1-6)[Man(a1-2)Man(a1-2)Man(a1-3)]Man", "outline": "as §1"}, "[22]": {"target": "Man(a1-2)Man(a1-3)[Man(a1-2)Man(a1-6)]Man(a1-6)[Man(a1-2)Man(a1-2)Man(a1-3)]Man(b1-4)GlcNAc(b1-4)GlcNAc", "outline": "as §1"}, "[23]": {"target": "Man(a1-2)Man(a1-3)[Man(a1-6)]Man(a1-6)[Man(a1-2)Man(a1-3)]Man(b1-4)GlcNAc(b1-4)GlcNAc", "outline": "as §1"}, "[24]": {"target": "Man(a1-2)Man(a1-6)[Man(a1-3)]Man(a1-6)[Man(a1-2)Man(a1-2)Man(a1-3)]Man", "outline": "as §1"}, "[25]": {"target": "Man(a1-2)Man(a1-6)[Man(a1-3)]Man(a1-6)[Man(a1-2)Man(a1-2)Man(a1-3)]Man(b1-4)GlcNAc(b1-4)GlcNAc", "outline": "as §1"}, "Man(a1-3)[Man(a1-6)]Man": {"target": "Man(a1-3)[Man(a1-6)]Man", "outline": "as §1"}, "[26]": {"target": "Man(a1-3)[Man(a1-6)]Man(a1-6)[Man(a1-2)Man(a1-3)]Man(b1-4)GlcNAc(b1-4)GlcNAc", "outline": "as §1"}, "[27]": {"target": "Man(a1-3)[Man(a1-6)]Man(a1-6)[Man(a1-3)]Man", "outline": "as §1"}, "[28]": {"target": "Man(a1-3)[Man(a1-6)]Man(a1-6)[Man(a1-3)]Man(b1-4)GlcNAc(b1-4)GlcNAc", "outline": "as §1"}, "[29]": {"target": "Man(a1-3)[Man(a1-6)]Man(b1-4)GlcNAc(b1-4)GlcNAc", "outline": "as §1"}, "[30]": {"target": "Man(a1-3)[Man(a1-6)]Man(b1-4)GlcNAc(b1-4)[Fuc(a1-6)]GlcNAc", "outline": "as §1"}, "Man(a1-6)Man": {"target": "Man(a1-6)Man", "outline": "as §1"}, "Man(b1-4)GlcNAc": {"target": "Man(b1-4)GlcNAc", "outline": "as §1"}, "MurNAc(b1-4)GlcNAc": {"target": "MurNAc(b1-4)GlcNAc", "outline": "as §1"}, "Neu5Ac(a2-3)Gal": {"target": "Neu5Ac(a2-3)Gal", "outline": "as §1"}}, "note": "The list shows a part of the results.", "data": [{"binder": "B1", "values": [{"measurement": "glycan array binding signal (z-score)", "setting": "[1]", "result": -0.412}, {"measurement": "glycan array binding signal (z-score)", "setting": "[2]", "result": -0.391}, {"measurement": "glycan array binding signal (z-score)", "setting": "[3]", "result": -0.354}, {"measurement": "glycan array binding signal (z-score)", "setting": "[4]", "result": -0.277}, {"measurement": "glycan array binding signal (z-score)", "setting": "[5]", "result": -0.346}, {"measurement": "glycan array binding signal (z-score)", "setting": "[6]", "result": -0.369}, {"measurement": "glycan array binding signal (z-score)", "setting": "GlcNAc(b1-3)GalNAc", "result": -0.431}, {"measurement": "glycan array binding signal (z-score)", "setting": "GlcNAc(b1-3)Man", "result": 5.11}, {"measurement": "glycan array binding signal (z-score)", "setting": "[7]", "result": -0.21}, {"measurement": "glycan array binding signal (z-score)", "setting": "[8]", "result": -0.24}, {"measurement": "glycan array binding signal (z-score)", "setting": "[9]", "result": -0.276}, {"measurement": "glycan array binding signal (z-score)", "setting": "[10]", "result": 0.202}, {"measurement": "glycan array binding signal (z-score)", "setting": "GlcNAc(b1-4)GlcNAc", "result": 1.75}, {"measurement": "glycan array binding signal (z-score)", "setting": "[11]", "result": 0.343}, {"measurement": "glycan array binding signal (z-score)", "setting": "[12]", "result": 1.14}, {"measurement": "glycan array binding signal (z-score)", "setting": "[13]", "result": -0.172}, {"measurement": "glycan array binding signal (z-score)", "setting": "[14]", "result": -0.617}, {"measurement": "glycan array binding signal (z-score)", "setting": "[15]", "result": 1.72}, {"measurement": "glycan array binding signal (z-score)", "setting": "GlcNAc(b1-6)GalNAc", "result": 0.518}, {"measurement": "glycan array binding signal (z-score)", "setting": "[16]", "result": 0.567}, {"measurement": "glycan array binding signal (z-score)", "setting": "Kdn(a2-3)Gal(b1-3)GalNAc", "result": 0.967}, {"measurement": "glycan array binding signal (z-score)", "setting": "Kdn(a2-3)Gal(b1-3)GlcNAc", "result": -0.708}, {"measurement": "glycan array binding signal (z-score)", "setting": "Kdn(a2-3)Gal(b1-4)Glc", "result": 1.11}, {"measurement": "glycan array binding signal (z-score)", "setting": "Kdn(a2-3)Gal(b1-4)GlcNAc", "result": 1.48}, {"measurement": "glycan array binding signal (z-score)", "setting": "[17]", "result": 1.12}, {"measurement": "glycan array binding signal (z-score)", "setting": "Kdn(a2-6)Gal(b1-4)GlcNAc", "result": -0.26}, {"measurement": "glycan array binding signal (z-score)", "setting": "[18]", "result": -0.704}, {"measurement": "glycan array binding signal (z-score)", "setting": "[19]", "result": 0.503}, {"measurement": "glycan array binding signal (z-score)", "setting": "Man(a1-2)Man(a1-3)Man", "result": -0.689}, {"measurement": "glycan array binding signal (z-score)", "setting": "[20]", "result": -0.702}, {"measurement": "glycan array binding signal (z-score)", "setting": "[21]", "result": -0.191}, {"measurement": "glycan array binding signal (z-score)", "setting": "[22]", "result": 1.5}, {"measurement": "glycan array binding signal (z-score)", "setting": "[23]", "result": -0.45}, {"measurement": "glycan array binding signal (z-score)", "setting": "[24]", "result": -0.681}, {"measurement": "glycan array binding signal (z-score)", "setting": "[25]", "result": 0.855}, {"measurement": "glycan array binding signal (z-score)", "setting": "Man(a1-3)[Man(a1-6)]Man", "result": 0.678}, {"measurement": "glycan array binding signal (z-score)", "setting": "[26]", "result": 0.577}, {"measurement": "glycan array binding signal (z-score)", "setting": "[27]", "result": 3.41}, {"measurement": "glycan array binding signal (z-score)", "setting": "[28]", "result": -0.282}, {"measurement": "glycan array binding signal (z-score)", "setting": "[29]", "result": -0.62}, {"measurement": "glycan array binding signal (z-score)", "setting": "[30]", "result": -0.415}, {"measurement": "glycan array binding signal (z-score)", "setting": "Man(a1-6)Man", "result": 0.744}, {"measurement": "glycan array binding signal (z-score)", "setting": "Man(b1-4)GlcNAc", "result": 4.76}, {"measurement": "glycan array binding signal (z-score)", "setting": "MurNAc(b1-4)GlcNAc", "result": 0.63}, {"measurement": "glycan array binding signal (z-score)", "setting": "Neu5Ac(a2-3)Gal", "result": -0.546}]}]}
